# PubChem BioAssay AID504339 (National Center for Advancing Translational Sciences (NCATS), 2011)
# The whole screen tested about 390,000 compounds, of which about 17,000 (4.4%) were called active. Inconclusive means that the source gave no clear call. Such entries were picked first, then a sample of the others. The call rests on the fitted dose curve; in most records, active means well fitted inhibition curve with a large enough effect; inconclusive means small, poorly fitted or top-dose-only effect; inactive means no such curve, though single readings can be large or run the other way. A potency beside an inconclusive call is a rough fit, not a confirmed value.
# Target: Lysine-specific demethylase 4A (Homo sapiens) (UniProt O75164)
# Assay: qHTS Assay for Inhibitors of JMJD2A-Tudor Domain; further: nearly all actives have a fitted effect of over 50% in size
# Conditions: AlphaScreen JMJD2A-Tudor / H3K4me3 peptide binding; activity change, negative = inhibition: at 114 µM (top of the series)
# On the % scale 0 is the no-effect control and ±100 the full control effect; potency means the concentration at half of the fitted maximal effect; tags describe the fitted curve by direction and shape.
# UniProt O75164, sequence (O75164 whole entry, looked up, the tested form may be a part): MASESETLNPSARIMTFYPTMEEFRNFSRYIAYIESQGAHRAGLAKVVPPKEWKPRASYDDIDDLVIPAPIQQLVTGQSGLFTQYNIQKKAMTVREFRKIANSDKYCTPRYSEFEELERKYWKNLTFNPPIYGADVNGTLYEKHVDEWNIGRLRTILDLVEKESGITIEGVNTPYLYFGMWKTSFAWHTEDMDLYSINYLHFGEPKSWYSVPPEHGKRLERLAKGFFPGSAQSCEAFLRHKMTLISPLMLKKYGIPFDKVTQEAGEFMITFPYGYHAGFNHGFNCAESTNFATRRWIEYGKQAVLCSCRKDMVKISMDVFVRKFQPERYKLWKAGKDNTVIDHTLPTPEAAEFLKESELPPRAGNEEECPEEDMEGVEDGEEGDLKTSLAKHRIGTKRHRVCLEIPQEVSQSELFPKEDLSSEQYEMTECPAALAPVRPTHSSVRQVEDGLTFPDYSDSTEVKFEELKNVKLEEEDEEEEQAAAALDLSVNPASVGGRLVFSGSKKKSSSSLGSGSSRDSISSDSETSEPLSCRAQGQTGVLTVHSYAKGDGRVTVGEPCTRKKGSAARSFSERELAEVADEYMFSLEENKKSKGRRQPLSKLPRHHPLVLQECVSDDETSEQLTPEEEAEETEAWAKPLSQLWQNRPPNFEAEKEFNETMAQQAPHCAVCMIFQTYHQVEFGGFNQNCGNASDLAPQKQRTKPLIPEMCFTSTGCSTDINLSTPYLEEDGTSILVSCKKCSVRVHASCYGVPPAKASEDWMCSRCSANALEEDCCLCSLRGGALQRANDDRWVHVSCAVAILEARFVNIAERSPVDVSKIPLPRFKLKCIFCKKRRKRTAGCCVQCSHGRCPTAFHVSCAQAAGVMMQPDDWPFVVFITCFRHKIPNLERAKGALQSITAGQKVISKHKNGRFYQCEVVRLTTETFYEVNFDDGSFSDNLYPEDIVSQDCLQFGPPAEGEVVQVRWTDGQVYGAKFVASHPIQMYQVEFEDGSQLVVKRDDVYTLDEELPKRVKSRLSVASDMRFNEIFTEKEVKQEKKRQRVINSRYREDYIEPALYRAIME
SMILES,Potency,"activity change, negative = inhibition"
CCCCOC(=O)c1c(C)oc2ccc(NS(=O)(=O)c3ccc4c5c(cccc35)C(=O)N4)cc12,"inconclusive: 44.7 µM [inhibitor, partial curve]",
COc1ccc(NC(=O)CN(C)C(=O)Cc2ccc(S(=O)(=O)N3CCOCC3)s2)cc1,,inconclusive: -45.5% [inhibitor]
C=CCOc1c(Cl)cc(CNCCCN2CCOCC2)cc1OC,"inconclusive: 14.1 µM [inhibitor, full curve, poor fit]",
COc1cccc(N2CCN(C(=O)CCn3nc(C)c(S(=O)(=O)N4CCCC4)c3C)CC2)c1,"inconclusive: 100 µM [inhibitor, single point]",
O=C(N/N=C/c1ccc(N2CCOCC2)o1)c1cccc([N+](=O)[O-])c1,"inconclusive: 89.1 µM [inhibitor, single point]",
CN(Cc1n[nH]c(=S)n1C)S(=O)(=O)c1ccccc1,active: 5.62 µM,
COc1ccc(/C=N/Nc2nonc2N)c(OC)c1,inactive,
O=C(O)CC1NC(=S)N(c2ccccc2)C1=O (stereo not drawn),"inconclusive: 56.2 µM [inhibitor, partial curve, poor fit]",
CCOC(=O)/C=C/C(=O)Nc1nccs1,"inconclusive: 31.6 µM [inhibitor, partial curve]",
C/C(=N\Nc1cccc2cccnc12)c1ccc(N)cc1,"inconclusive: 28.2 µM [inhibitor, full curve]",
Cc1sc2ncnc(Sc3ccccc3C(=O)O)c2c1C,inactive,
OC[C@H]1OC(O)[C@@H](O)[C@@H](O)[C@@H]1O (stereo partly drawn),inactive,
OCCN1CCN(CCCN2c3ccccc3Sc3ccc(Cl)cc32)CC1,"inconclusive: 56.2 µM [inhibitor, partial curve]",
O=C(O)COc1ccccc1/C=N/NC(=O)c1cccc(S(=O)(=O)N2CCOCC2)c1,active: 39.8 µM,
COC(=O)/C(=N\Nc1ccccc1)Sc1nnc(-c2ccc(OC)cc2)n1C,"inconclusive: 20 µM [inhibitor, full curve, poor fit]",
CN1CCC(N(C)C(=O)Cc2ccccc2[N+](=O)[O-])CC1,inactive,
CC(=O)N1CCc2c(sc(NC(=O)c3ccc([N+](=O)[O-])o3)c2C#N)C1,"inconclusive: 63.1 µM [inhibitor, partial curve, poor fit]",
Cc1[nH]n(C(N)=S)c(=O)c1N=Nc1ccc2ccccc2c1,active: 44.7 µM,
CCN(C(=O)COC(=O)c1ccc2c(c1)OCO2)c1c(N)n(Cc2ccccc2)c(=O)[nH]c1=O,inactive,
O=C(O)c1c(Cl)c(Cl)c(Cl)c(Cl)c1C(=O)N1CCCCCC1,inactive,
Cc1ccnc(Nc2nc(-c3sc(C)nc3C)cs2)c1,active: 79.4 µM,
COc1ccc(C(=O)c2ccsc2N)cc1,inactive,
COc1ccc(NC(=O)CSc2nc(-c3ccccc3)cc(-c3cc(OC)c(OC)c(OC)c3)c2C#N)c(OC)c1,inactive,
CCCCC(=O)Nc1cccc(NC(=S)NC(=O)C(C)C)c1,"inconclusive: 89.1 µM [inhibitor, single point]",

SMILES,Potency,"activity change, negative = inhibition"
Cc1ccccc1C(=O)N1CCC(C(=O)NN2C(=O)NC3(CCCCC3)C2=O)CC1,inactive,
CCCCN(CCCNC(=O)c1cc(Nc2ccc(OC)cc2OC)nc2ccccc12)Cc1ccccc1,"inconclusive: 22.4 µM [inhibitor, full curve]",
Cc1ccc(C(=O)COC(=O)c2cccc([N+](=O)[O-])c2)s1,"inconclusive: 79.4 µM [inhibitor, partial curve]",
O=C(COC(=O)c1cccc(C(=O)OCC(=O)NC2CCCCC2)n1)NC1CCCCC1,"inconclusive: 39.8 µM [inhibitor, single point]",
COc1ccc(Cl)cc1NC(=O)C1CCCN(S(=O)(=O)c2ccc3c(c2)CCCC(=O)N3)C1 (stereo not drawn),inactive,
COc1cccc(C(=O)CSc2nnc(CNS(C)(=O)=O)n2-c2ccc(C)cc2)c1,active: 17.8 µM,
O=C(O)c1ccc(N2C(=O)/C(=C/C=C/c3ccccc3)SC2=S)cc1,"inconclusive: 44.7 µM [inhibitor, partial curve]",
COCCOC(=O)C1=C(C)Nc2ncnn2C1c1ccc(F)cc1 (stereo not drawn),"inconclusive: 50.1 µM [inhibitor, full curve, poor fit]",
O=C(NCCCN1CCOCC1)c1ccc(Sc2ccccc2Cl)c([N+](=O)[O-])c1,"inconclusive: 56.2 µM [inhibitor, partial curve]",
CCNC(=S)N1CCN(c2cccc(C(F)(F)F)c2)CC1,inactive,
CCC(=NCCc1c(C)[nH]c2ccccc12)C1=C(O)CC(c2ccccc2)CC1=O (stereo not drawn),"inconclusive: 31.6 µM [inhibitor, partial curve]",
Cc1ccc(/C=C/C(=O)N2CCc3ccccc32)o1,active: 39.8 µM,
Cc1cccc(NC(c2cccc(Cl)c2)c2ccc3cccnc3c2O)n1 (stereo not drawn),active: 15.8 µM,
O=C(CCN1CCCCC1=O)NC1CCCc2c1cnn2-c1ccccc1F (stereo not drawn),inactive,
COc1ccc(OCCNC2CCCC2)cc1,active: 79.4 µM,
CCN(CC)c1ccc(C2CC(=O)Nc3cc(OC)c(OC)cc32)cc1 (stereo not drawn),active: 50.1 µM,
O=C(CN1CCOCC1)Nc1nc(-c2ccccc2)cs1,"inconclusive: 22.4 µM [inhibitor, partial curve]",
Cn1c(=O)c2c(ncn2CC(=O)OCCCC(=O)c2ccc(Br)cc2)n(C)c1=O,inactive,
CCCCc1ccc(NC(=O)CSc2nc(=O)n(CCN(CC)CC)c3c2CCC3)cc1,inactive,
CC1CCCC(C)N1C(=O)CN1C(=O)c2ccccc2S1(=O)=O (stereo not drawn),inactive,
COc1ccccc1NC(=S)NC(=O)CCc1ccccc1,inactive,
O=C(N/N=C/c1cccc([N+](=O)[O-])c1O)C(O)(c1ccccc1)c1ccccc1,"inconclusive: 50.1 µM [inhibitor, partial curve, poor fit]",
CCCCSCCCNC(=O)c1cn(CC)c2ccc(S(=O)(=O)N3CCOCC3)cc2c1=O,"inconclusive: 50.1 µM [inhibitor, partial curve, poor fit]",
CCOc1ccc(-n2cc(-c3ccccc3)c3c(=O)[nH]cnc32)cc1,"inconclusive: 56.2 µM [inhibitor, partial curve]",
